The source of these data is paper PMC4336329 (PLoS ONE, 2015).

About 2,200 (0.71%) of roughly 310,000 compounds showed an effect of 50% or more. The effect is printed as a negative number. The list shows a part of the results.

In this test the target is human ether-à-go-go-related gene (hERG) potassium channel (human, UniProt Q12809). Nature of the test: primary screen, population patch clamp on CHO cells stably expressing hERG.
Sequence of human ether-à-go-go-related gene (hERG) potassium channel (Q12809 whole entry, looked up): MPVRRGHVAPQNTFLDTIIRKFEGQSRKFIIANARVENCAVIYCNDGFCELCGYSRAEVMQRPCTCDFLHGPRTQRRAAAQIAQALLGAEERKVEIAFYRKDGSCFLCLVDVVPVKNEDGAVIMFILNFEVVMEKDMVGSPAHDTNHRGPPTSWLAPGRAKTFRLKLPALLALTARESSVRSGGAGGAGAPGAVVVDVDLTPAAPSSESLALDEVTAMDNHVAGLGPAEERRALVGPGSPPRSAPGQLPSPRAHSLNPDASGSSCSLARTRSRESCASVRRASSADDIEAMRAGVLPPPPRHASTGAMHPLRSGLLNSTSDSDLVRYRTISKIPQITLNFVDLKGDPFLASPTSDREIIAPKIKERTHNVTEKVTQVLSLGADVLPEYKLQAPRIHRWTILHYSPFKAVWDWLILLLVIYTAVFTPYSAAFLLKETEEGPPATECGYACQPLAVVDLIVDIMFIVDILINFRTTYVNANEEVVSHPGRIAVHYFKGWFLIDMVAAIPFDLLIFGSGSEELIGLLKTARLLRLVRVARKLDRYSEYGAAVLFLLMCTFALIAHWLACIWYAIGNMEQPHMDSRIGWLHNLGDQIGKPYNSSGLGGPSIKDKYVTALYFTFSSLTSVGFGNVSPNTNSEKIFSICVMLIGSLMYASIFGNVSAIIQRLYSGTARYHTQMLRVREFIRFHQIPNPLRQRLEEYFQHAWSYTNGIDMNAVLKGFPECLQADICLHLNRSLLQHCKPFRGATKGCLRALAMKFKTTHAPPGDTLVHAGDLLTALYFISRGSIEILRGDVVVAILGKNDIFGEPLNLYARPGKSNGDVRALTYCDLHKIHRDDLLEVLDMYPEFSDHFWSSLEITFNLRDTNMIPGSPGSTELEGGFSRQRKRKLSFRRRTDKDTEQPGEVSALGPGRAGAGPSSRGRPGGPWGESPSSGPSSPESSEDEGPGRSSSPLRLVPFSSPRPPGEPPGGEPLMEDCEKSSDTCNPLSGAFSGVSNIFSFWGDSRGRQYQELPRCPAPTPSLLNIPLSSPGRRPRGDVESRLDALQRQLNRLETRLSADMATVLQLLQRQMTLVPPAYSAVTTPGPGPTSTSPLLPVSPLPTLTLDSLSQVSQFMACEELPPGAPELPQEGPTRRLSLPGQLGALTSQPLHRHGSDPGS
On to `CC(=O)c1ccc(N2CCN(S(=O)(=O)c3ccc4c(c3)NC(=O)CO4)CC2)cc1`, for which the “hERG current change (%, negative = inhibition) at 1uM” value is 12.2%.
The figure for `CCn1c(SC(C)C)nnc1-c1cc(-c2ccccc2)sc1N` is 6.79%; for `CCc1ccccc1NC(=S)N=Nc1c(O)n(C)c2ccc(S(=O)(=O)N3CCOCC3)cc12` it is 3.29%; for `COCCCn1c(SCC(=O)NCc2ccccc2)nc2ccccc2c1=O` it is -8.03%.
The figure for `CCC(CC)C(=O)Nc1nnc(SCC(=O)N2CCN(c3ccccc3OC)CC2)s1` is 12.8%; for `CCC(=O)N1CCN(c2ccc(NC(=O)COc3ccc(CC)cc3)cc2)CC1` it is 10.9%.
On to `NC(N)=Nc1nc(-c2ccccc2)c2ccccc2n1`, for which the “hERG current change (%, negative = inhibition) at 1uM” value is reported as -6.8%.
On to `Cc1ccc(C(=O)N2CCC(n3nccc3NC(=O)Nc3cccc(F)c3)CC2)cn1`, for which the “hERG current change (%, negative = inhibition) at 1uM” value stood at 10.9%.
The result for `O=C(Nc1cccc(O)c1)c1noc2c1CCCCC2` reads -0.868%; that for `O=c1cc(N2CCCC2)c2ccccc2o1`, 1.44%.
For `CCOC(=O)/C(=C\C=C\N1CCOCC1)C(C)=O`, the “hERG current change (%, negative = inhibition) at 1uM” value worked out at 4.97%.
For `CCOC(=O)C1CCN(C=Nc2cc(C)on2)CC1`, the “hERG current change (%, negative = inhibition) at 1uM” value came to 17.5%.
Take `COc1cccc(C(=O)NCCCNC(=O)c2ccccn2)c1`: the “hERG current change (%, negative = inhibition) at 1uM” value is 15.2%.
The figure for `CCN(C(=O)C(C)OC(=O)C1C(C(=O)OC)=C(C)NC(C)=C1C(=O)OC)c1ccccc1` (stereo not shown) is 5.45%.
The figure for `Clc1ccc(CN=C2Nc3ccccc3CS2)cc1` is 15.8%; for `CCOc1ccc(OCc2ccc(C(=O)NCc3ccncc3)o2)cc1` it is 6.08%; for `Cc1occc1-c1nnc(SCC(=O)NC2CCCCC2)o1` it is 16.2%.
As for `Cc1ccc(C(=O)NCC(=O)Nc2ccncc2)cc1C`, the “hERG current change (%, negative = inhibition) at 1uM” value came out at 2.5%.
With `CN(C(=O)Cn1cc(C(F)(F)F)ccc1=O)c1c(N)n(Cc2ccccc2)c(=O)[nH]c1=O`, the “hERG current change (%, negative = inhibition) at 1uM” value was 2.53%.
For `O=C(COC(=O)c1cccc(C(=O)OCC(=O)NC2CCCCC2)n1)NC1CCCCC1`, the “hERG current change (%, negative = inhibition) at 1uM” value worked out at 10.5%.
Consider `COc1ccccc1NC(=O)C(C)Sc1nccn1C` (stereo not shown), for which the “hERG current change (%, negative = inhibition) at 1uM” value was -3.84%.
Take `CC(C)NS(=O)(=O)c1ccc(CCC(=O)NCc2cccnc2)cc1`: the “hERG current change (%, negative = inhibition) at 1uM” value was -2.67%.
On to `COCCCNC(=O)C1CCCN(S(C)(=O)=O)C1` (stereo not shown), for which the “hERG current change (%, negative = inhibition) at 1uM” value was -0.126%.
Turning to `Cc1ccc2oc(C(=O)Nc3ccc(S(=O)(=O)Nc4onc(C)c4C)cc3)cc(=O)c2c1`, the “hERG current change (%, negative = inhibition) at 1uM” value worked out at 15.4%.
With `CCOc1ccc(-n2nnnc2SCC(=O)N2CCOCC2)cc1`, the “hERG current change (%, negative = inhibition) at 1uM” value worked out at 11.6%.
The figure for `COc1ccc(C(=O)NC(C(=O)NCc2ccccc2OC)C(C)C)cc1` (stereo not shown) is 9.93%.
The result for `O=C(c1ccccc1Sc1c(Cl)cccc1[N+](=O)[O-])N1CCOCC1` reads 16.6%.
The figure for `Cc1noc(NS(=O)(=O)c2ccc(NC(=O)c3ccoc3C)cc2)c1C` is 11.5%.
With `CCSc1nnc(C)c(=O)n1COC(=O)c1ccc(S(=O)(=O)N2CCCC2)cc1`, the “hERG current change (%, negative = inhibition) at 1uM” value came out at 11.2%.
With `CSc1ncccc1C(=O)OCc1ccccc1`, the “hERG current change (%, negative = inhibition) at 1uM” value worked out at 6.25%.
The figure for `COc1ccc(C)cc1NC(=O)c1cc(-c2ccccc2)nc2c1cnn2C(C)C` is 4.36%.
The figure for `Cc1cc(/C=C(\C#N)C(=O)NCc2ccccc2)cc(C)c1O` is 16.4%.
As for `CN(c1ccc(C(=O)Nc2ccc3c(c2)OCCO3)cc1)S(C)(=O)=O`, the “hERG current change (%, negative = inhibition) at 1uM” value is on record as 10.1%.
Take `COC(=O)c1ccccc1NS(=O)(=O)c1cn(C)c(=O)n(C)c1=O`: the “hERG current change (%, negative = inhibition) at 1uM” value came out at 1.71%.
In the case of `COc1ccc(OCC#CCN2CCCCCC2)cc1.O=C(O)C(=O)O`, the “hERG current change (%, negative = inhibition) at 1uM” value was -0.12%.
As for `O=C(CCN1C(=O)/C(=C/c2ccccc2)SC1=S)NCCCN1CCOCC1`, the “hERG current change (%, negative = inhibition) at 1uM” value was 2.61%.
The figure for `Cc1ccc(C)c(NC(=O)C(C)CC2COCCO2)c1` (stereo not shown) is 6.86%; for `Cc1ccc(S(=O)(=O)N/N=C/c2ccccc2F)cc1[N+](=O)[O-]` it is 17.4%.
The result for `c1ccc(-n2nnnc2-n2cnc3ccccc32)cc1` reads 2.26%; that for `Oc1cc2c(cc1CN1CCN(c3ccccc3F)CC1)OCO2`, 5.29%.
Regarding `O=c1c2ccccc2sc2ccc(Cl)cc12`, the “hERG current change (%, negative = inhibition) at 1uM” value was determined as 17.1%.
The result for `COc1ccccc1N1CCN(CC(=O)Nc2ccc(-n3cnnn3)cc2)CC1` reads 8.78%; that for `Cc1ccc([N+](=O)[O-])cc1NC(=O)C1CCCC1`, 16.3%.
The result for `COc1ccsc1NC(=O)OCc1ccc(Cl)cc1` reads -11.5%; that for `CC(C)NC(=O)CN1C(=O)c2ccccc2S1(=O)=O`, 12.7%; that for `CCOc1ccccc1NC(=O)CSc1nnc(-c2ccco2)n1Cc1ccco1`, 3.17%.
Regarding `COc1cc(OC)cc(C(=O)Nc2ccc(CN3CCCCC3)cc2)c1`, the “hERG current change (%, negative = inhibition) at 1uM” value amounted to 13%.
Turning to `COc1ccccc1NC(=S)NC(=O)CC(C)C`, the “hERG current change (%, negative = inhibition) at 1uM” value is given as -2.42%.
The result for `O=C(NCC1CCCO1)c1cc(-c2ccccc2)on1` (stereo not shown) reads 4.24%; that for `COc1cc(C(=O)Nc2ccc(C#N)cc2)c([N+](=O)[O-])cc1OC`, 1.12%; that for `O=C(Nc1ccc2c(c1)CCC2)c1cnccn1`, 0.632%.
The figure for `COc1ccc(-c2cn(-c3ccccc3)nc2C(=O)O)cc1OC` is 8.69%; for `Cc1ccc(NC(=O)COC(=O)/C=C/c2c(C)nn(-c3ccc(F)cc3)c2Cl)cc1F` it is 7.45%; for `CCCCCCn1c(C(C)NC(=O)c2ccco2)nc2ccccc21` (stereo not shown) it is -7.39%.
Turning to `Cc1ccc(NC(=O)c2cc(=O)[nH]c3ccc(S(=O)(=O)N4CCOCC4)cc23)nc1`, the “hERG current change (%, negative = inhibition) at 1uM” value was found to be 14.5%.
Regarding `Cc1nc(-c2ccc(S(=O)(=O)NCc3cccnc3)s2)cs1`, the “hERG current change (%, negative = inhibition) at 1uM” value was determined as 11.8%.
The result for `COc1ccc(N2C(=O)c3ccccc3C2O)cc1` (stereo not shown) reads 8.57%; that for `Cc1ccc2c3c1C1(C(=O)N3C(C)(C)CC2C)C(C#N)=C(N)Oc2cc(O)ccc21` (stereo not shown), 3.75%.
Regarding `C=CCNC(=O)CN1C2CCCC1CC(NC(=O)c1ccccc1C)C2` (stereo not shown), the “hERG current change (%, negative = inhibition) at 1uM” value is reported as 13.2%.
The result for `CCCS(=O)(=O)NCCc1cc2ccc(C)cc2[nH]c1=O` reads 9.97%; that for `OCC1(Cc2ccccc2)CCN(Cc2cccc(F)c2F)CC1`, 4.03%; that for `CC(=O)Oc1ccc(/C=N\NC(=O)c2cc3c(ccc4ccccc43)o2)cc1`, 7.1%.
Consider `CCOC(=O)C1CCN(c2nnc(N3CCCC3=O)s2)CC1`, for which the “hERG current change (%, negative = inhibition) at 1uM” value is given as 13%.
On to `CCCC(C)NC(=O)COc1ccc(S(=O)(=O)N2CCCC2)cc1` (stereo not shown), for which the “hERG current change (%, negative = inhibition) at 1uM” value was 12.9%.
The figure for `COc1ccc2nc(SCC(=O)NCc3ccc4c(c3)OCO4)[nH]c2c1` is 7.13%; for `Cl.O=C(CCl)N1CCN(CC(=O)N2CCCC2)CC1` it is 18.6%.
For the compound `Cc1ccc(-c2c(C(=O)N/N=C/c3cccnc3)nnn2-c2nonc2N)cc1`, the “hERG current change (%, negative = inhibition) at 1uM” value is on record as 12.5%.
The result for `Cn1c(CS(=O)Cc2c(Cl)cccc2Cl)nnc1SCc1ccc(Cl)cc1` (stereo not shown) reads -12.4%; that for `CC(C)(C)NC(=O)c1cccc(NC(=O)CSc2ccc(Cl)cc2)c1`, -23.1%; that for `Cc1ccc(C(=O)OCC(=O)Nc2ccccc2N2CCOCC2)cc1`, 8.92%.
The figure for `CCCN(CCC)C(=S)NC(=O)c1ccc(Cl)cc1Cl` is -5.92%; for `COc1ccccc1NC(=O)Nc1nnc(-c2ccco2)s1` it is 22.7%; for `Cc1cn(S(=O)(=O)c2ccc(Br)cc2)cn1` it is -5.94%.
The result for `CCc1ccc(N(C(=O)c2ccco2)C(C(=O)NC2CCCC2)c2ccco2)cc1` (stereo not shown) reads 8.56%; that for `O=c1cc(N2CCCCC2)c(-c2ccccc2)nn1Cc1ccc(Cl)cc1Cl`, 0.99%.
In the case of `COc1cccc(-c2nc(C(N)=O)c3[nH]c(=O)n(-c4ccccc4)c3n2)c1OC`, the “hERG current change (%, negative = inhibition) at 1uM” value is listed as 7.39%.
The result for `CCn1cc(C(=O)N(CCC(C)C)c2c(N)n(Cc3ccccc3)c(=O)[nH]c2=O)c(=O)c2ccc(C)nc21` reads -4.79%; that for `COc1ccc(CCNC(=O)C2CC(=O)N(C3CCCC3)C2)cc1OC` (stereo not shown), -4.21%.
The figure for `COc1ccc(/C=N/NC(=O)c2cccc(Br)c2)cc1CN1CCOCC1` is -38.5%; for `O=C(COC(=O)c1cc(Br)ccc1O)NNC(=O)c1ccc(Cl)cc1` it is 14.9%.
Consider `CC1(C)N=C(c2ccccc2)[C@@H]2C(c3ccc([N+](=O)[O-])cc3)N21` (stereo partly shown), for which the “hERG current change (%, negative = inhibition) at 1uM” value is given as -1.05%.
The result for `Cc1cc(NC(=O)c2ccccc2)ncc1NC(=O)c1cccs1` reads 19.4%; that for `Cn1c(=O)c2c(nc(NCCO)n2CCc2ccccc2)n(C)c1=O`, 6.9%; that for `Cc1ccc(NN=Nc2nc3c([nH]2)c(=O)n(C)c(=O)n3C)cc1`, 7.18%.
The figure for `CCc1cc(=O)oc2cc(C)cc(OC(C)C(=O)NCCCN3CCOCC3)c12` (stereo not shown) is 13%; for `Cc1ccccc1Nc1nc(NCc2ccco2)c2ccccc2n1.Cl` it is -5.19%; for `CCOc1cc(S(=O)(=O)Nc2ccncc2)ccc1F` it is 13.7%.
The result for `CCC(CC)c1nnc(NC(=O)C2CC(=O)N(CCc3ccc(F)cc3)C2)s1` (stereo not shown) reads 14.7%.
Take `Nc1nc(-c2cccnc2)nn1C(=O)COc1ccccc1`: the “hERG current change (%, negative = inhibition) at 1uM” value amounted to 10.8%.
As to `O=S1(=O)N=C(N(CCO)/N=C/c2ccc(Cl)cc2)c2ccccc21`, the “hERG current change (%, negative = inhibition) at 1uM” value is 20.5%.
In the case of `Clc1ccc2nc(-c3ccc4c(c3)OCO4)cn2c1`, the “hERG current change (%, negative = inhibition) at 1uM” value came out at 15.3%.
